# From PubChem BioAssay AID686979 (National Center for Advancing Translational Sciences (NCATS), 2013)
# In all, about 420,000 compounds went through this assay and about 50,000 (12%) were called active. Inconclusive results, whose numbers are uncertain, are shown with a selection of clear calls. Calls come from the whole dose curve; as a rule, active = well fitted inhibition curve with a large enough effect; inconclusive = small, poorly fitted or top-dose-only effect; inactive = flat fitted curve, though single readings scatter. Potencies of inconclusive entries are left out as doubtful fits.
# Test: qHTS for Inhibitors of human tyrosyl-DNA phosphodiesterase 1 (TDP1): qHTS in cells in presence of CPT; note: nearly all actives have a fitted effect of over 55% in size
# Conditions: chicken DT40 Tdp1-/-;hTDP1 cells + 20 nM CPT, ATP luminescence, 48 h; activity change, negative = growth inhibition: at 46.2 µM (top of the series)
# Summary of the method: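 Chicken DT40 Tdp1-/- cells stably complemented with human TDP1 were seeded at 400 cells/well in medium containing 20 nM camptothecin, exposed to pin-transferred compounds, and grown at 37 °C for at least 48 hr. Viability was read as ATP luminescence.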
# % is set by controls: 0 for no effect and ±100 for the full control effect; potency is the fitted concentration of half-maximal effect; tags give direction and shape of the fitted curve.
Compound,Potency,"activity change, negative = growth inhibition"
Cc1nc(N2CCN(C(=O)c3ccco3)CC2)c2oc3ccccc3c2n1,active: 14.6 µM,
CC(C)NC(=O)C1(C)CSCC(=O)N1CC(F)(F)F (configuration not stated),,inactive: -2.94%
CNC(=O)OCN1C(=O)C2CC=CCC2C1=O (configuration not stated),,inconclusive: -3.3% [inhibitor]
O=C(CCC(=O)c1ccccc1)Nc1ccccc1OC(F)F,,inactive: -2.63%
COc1cc(OC)c(OC)cc1CN(C)C(c1ccccc1)c1nnnn1-c1ccccc1C (configuration not stated),"inconclusive [inhibitor, single point]",
CC(=O)c1ccccc1-c1ccc2c(c1)CC(CNC(=O)c1ccnc(Cl)c1)O2 (configuration not stated),active: 23.1 µM,
Cc1ccc(COc2ccsc2C(=O)NNC(N)=S)cc1,,inactive: -12.4%
CC1CCCCN1C(=O)COC(=O)c1ccc(S(C)(=O)=O)c([N+](=O)[O-])c1 (configuration not stated),active: 2.24 µM,
CC(C)CN(CC(C)C)C(=S)NC1CCCCC1,"inconclusive [inhibitor, partial curve]",
Cc1ccc(OCC(=O)N(Cc2ccc(Cl)cc2)CC2CCCO2)cc1C (configuration not stated),"inconclusive [inhibitor, single point]",
CSc1ccc(/C=C2\CCn3c2nc2cc(C(=O)O)ccc2c3=O)cc1,"inconclusive [inhibitor, single point]",
Cc1cc(C)c(OCCN(C)Cc2ccccc2)c(Br)c1,"inconclusive [inhibitor, single point]",
O=C(CBr)c1ccc(Oc2ccc(C(=O)C[n+]3cccc(Br)c3)cc2)cc1,"inconclusive [inhibitor, single point]",
CCN1C(=O)[C@H]2[C@H]3CN=C(SCC(=O)c4ccccc4)N3[C@@](C)(C(=O)OC)[C@H]2C1=O,"inconclusive [inhibitor, single point]",
CCN(CC)c1ccc(NC(=O)c2cccnc2)cc1,"inconclusive [inhibitor, single point]",
COc1ccc(/C=C/C(=O)c2c(O)cc(C)oc2=O)c(OC)c1,"inconclusive [inhibitor, partial curve]",
Cc1cccc(C(=O)NCC(=O)N2CCCC2)c1,,inactive: -0.242%
O=C(/C=C/c1ccccc1)NC(NC(=S)Nc1cccc(O)c1)C(Cl)(Cl)Cl (configuration not stated),"inconclusive [inhibitor, partial curve]",
CC(=O)NC(c1cccc(F)c1)c1nc(-c2ccc(N(C)C)cc2)cs1 (configuration not stated),"inconclusive [inhibitor, single point]",
Cc1ccc(C2(c3noc(CN(C)CCO)n3)CCCC2)cc1,,inactive: -22.8%
O=C(CSC1=NCCS1)N1CCc2ccccc21,"inconclusive [inhibitor, single point]",
CC(C)(C)CC(=O)Nc1nn[nH]n1,,inactive: 3.23%
Cc1cc(C)c(S(C)(=O)=O)c(Oc2cccc(C(F)(F)F)c2)n1,"inconclusive [inhibitor, single point]",
CCCOc1ccc(C2C(=O)N(C3CCCCCC3)CC(=O)N2Cc2ccc(OC)cc2)cc1OC (configuration not stated),"inconclusive [inhibitor, single point]",

Compound,Potency,"activity change, negative = growth inhibition"
Cc1cc(N2CCN(c3cccc(C(F)(F)F)c3)CC2)n2nc(-c3ccccc3C)nc2n1,active: 18.4 µM,
COc1ccc(NC(=O)CN(C)C(=O)c2cc(-c3ccncc3)nc3ccccc23)cc1,,inactive: -28%
COC(=O)c1sccc1NC(=O)CC1NCCNC1=O (configuration not stated),,inactive: -5.44%
CNC[C@@H]1Oc2cc(Br)ccc2S(=O)(=O)N([C@@H](C)CO)C[C@H]1C,"inconclusive [inhibitor, full curve, poor fit]",
C/C(=N\O)C(=O)OC1CC(C)CCC1C(C)C (configuration not stated),"inconclusive [inhibitor, single point]",
COc1ccc(-c2nnc(-c3cc(OC)c(OC)c(OC)c3)o2)cc1OC,active: 14.6 µM,
Clc1cccc(CSc2nccn2-c2ccccc2)c1,"inconclusive [inhibitor, single point]",
CO[C@@]12[C@@H]3N[C@@H]3CN1C1=C(C(=O)C(N)=C(C)C1=O)[C@@H]2COC(N)=O,active: 0.116 µM,
Cc1ccnc(NS(=O)(=O)c2ccc(NC(=O)C34CC5CC(C)(CC(C)(C5)C3)C4)cc2)n1,,inactive: -16.9%
CCC(Sc1nnnn1-c1ccccc1)C(=O)NC(C)c1ccccc1 (configuration not stated),"inconclusive [inhibitor, single point]",
CC1(c2nnnn2-c2ccc3c(c2)OCCO3)CCC(=O)N1CCc1ccccc1F (configuration not stated),"inconclusive [inhibitor, single point]",
Cc1nc(-c2ccc(F)cc2)c(CC(=O)Nc2ccc(C)c(S(=O)(=O)N3CCOCC3)c2)s1,active: 10.3 µM,
O=S(=O)(c1cccc(C(F)(F)F)c1)N1CCC(Oc2ccc(-n3cnnn3)cc2)CC1,active: 5.8 µM,
O=C(Nc1cccc(Oc2ccccc2)c1)C1Cc2c(-c3ccco3)ccnc2O1 (configuration not stated),"inconclusive [inhibitor, single point]",
Cc1ccc2oc(=O)c3cnn(CC(=O)N4CCN(c5cccc(C(F)(F)F)c5)CC4)c3c2c1,"inconclusive [inhibitor, single point]",
OC(COc1ccc(Cl)cc1)CN1CCC(Cc2ccccc2)CC1 (configuration not stated),"inconclusive [inhibitor, single point]",
O=C(Nc1ccccc1)C1=C[C@H](c2ccc(Br)cc2)C[C@H](OCc2ccc(CO)cc2)O1,active: 29.1 µM,
COc1cccc(-c2nc(N3CCCCC3)c3ccccc3n2)c1O,active: 25.9 µM,
Cc1nn(C(C)(C)C)c(OC(=O)c2ccc(Br)o2)c1Sc1ccccc1,,inconclusive: -30.6% [inhibitor]
COc1cccc(Nc2nc(N)nc(-c3oc4ccccc4c3C)n2)c1,active: 6.51 µM,
Cc1nc(NC(=O)c2c(-c3ccccc3Cl)noc2C)sc1C,active: 16.4 µM,
CCOc1ccc(Br)cc1C(=O)N/N=C/c1cccc(C)n1,,inactive: 0.37%
COc1ccccc1NS(=O)(=O)c1cccc(C(=O)N/N=C/c2ccccc2OCC(=O)O)c1,,inactive: 3.93%
